“And” between values parts separate entries of the source, which are not always exact repeats. Identical values can stand only once. The whole screen tested about 16,000 compounds, of which about 40 (0.2%) were called active. Another 1% or so got no clear call; they are omitted. The call rests on the fitted dose curve; in most records, active means well fitted activation curve with a large enough effect; inconclusive means small, poorly fitted or top-dose-only effect, or another doubt; inactive means no such curve, though single readings can be large or run the other way. Some of the results follow.
On the % scale 0 is the no-effect control and ±100 the full control effect; potency means the concentration at half of the fitted maximal effect.

Chain of UniProt Q8WZA2 (Q8WZA2 whole entry, looked up): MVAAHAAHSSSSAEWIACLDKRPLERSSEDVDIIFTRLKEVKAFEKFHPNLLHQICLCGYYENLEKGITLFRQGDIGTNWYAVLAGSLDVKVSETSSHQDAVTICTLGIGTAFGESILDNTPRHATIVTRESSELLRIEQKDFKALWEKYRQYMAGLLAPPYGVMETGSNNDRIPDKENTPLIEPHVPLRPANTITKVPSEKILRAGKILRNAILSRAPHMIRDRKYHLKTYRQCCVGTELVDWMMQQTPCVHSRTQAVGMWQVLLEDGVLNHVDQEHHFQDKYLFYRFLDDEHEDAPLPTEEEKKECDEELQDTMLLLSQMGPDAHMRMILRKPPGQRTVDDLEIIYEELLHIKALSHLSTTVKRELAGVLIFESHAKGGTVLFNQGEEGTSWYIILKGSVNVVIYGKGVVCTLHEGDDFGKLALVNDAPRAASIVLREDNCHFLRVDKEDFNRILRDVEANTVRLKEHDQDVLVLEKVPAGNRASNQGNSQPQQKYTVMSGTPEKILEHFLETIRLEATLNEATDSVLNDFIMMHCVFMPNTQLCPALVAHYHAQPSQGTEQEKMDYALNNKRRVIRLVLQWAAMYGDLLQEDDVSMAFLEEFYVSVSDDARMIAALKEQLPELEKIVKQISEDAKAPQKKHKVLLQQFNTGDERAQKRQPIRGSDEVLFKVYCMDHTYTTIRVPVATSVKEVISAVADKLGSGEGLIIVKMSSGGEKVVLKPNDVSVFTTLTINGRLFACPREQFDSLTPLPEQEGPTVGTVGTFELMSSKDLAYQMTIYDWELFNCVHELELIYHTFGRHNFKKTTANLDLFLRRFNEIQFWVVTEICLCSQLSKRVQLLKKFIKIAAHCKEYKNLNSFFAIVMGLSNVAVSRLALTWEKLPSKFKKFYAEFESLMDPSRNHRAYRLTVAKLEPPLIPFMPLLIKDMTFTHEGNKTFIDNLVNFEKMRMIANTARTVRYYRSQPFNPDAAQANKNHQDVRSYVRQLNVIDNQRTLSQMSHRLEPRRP

This assay has as its target Rap guanine nucleotide exchange factor 4 (Homo sapiens) (UniProt Q8WZA2). Nature of the assay: Validation qHTS for agonist of cAMP-regulated guanine nucleotide exchange factor 4 (EPAC2).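 On activation: exchange makes BODIPY-GDP fluorescence drop when released from Rap1B; series mostly up to about 150 µM.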 As to conditions: EPAC2 Rap1B BODIPY-GDP exchange, fluorescence; activation: stronger effect = higher value. The gist of the method:
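Signal normalized against 6.5 mM cAMP as agonist control. Mix of EPAC2 (100 nM), RAP1B-BODIPY-GDP (250 nM) and GDP (50 uM) was read kinetically at 480/540 nm, every 5 min over 30 min, after 5 min room-temperature incubation with compound.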
(In qHTS, concentration-response curves come from the screen itself.)
With `O=S(=O)(NCc1ccc(F)cc1)c1ccc(Br)cc1Br`, the activation is inactive: -32.6%. In the case of `Nc1ccn([C@@H]2CS[C@H](CO)O2)c(=O)n1`, the activation is inactive: 14.6%. Turning to `COc1ccc(C2Sc3ccccc3N(CCN(C)C)C(=O)[C@@H]2OC(C)=O)cc1` (some centres not stated), the activation is inactive: -12.4% and inactive: 6.35%. Turning to `CN(C)C(=O)Oc1ccc[n+](C)c1`, the activation is inactive: -2.42% and inactive: -26.9%. Take `Nc1c2c(nc3ccccc13)CCCC2O` (configuration not stated): the activation was inactive: -4.49% and inactive: -16.8% and inactive: 10.3%. Regarding `COc1ccc(Oc2ncc3nc(-c4cccc(C#N)c4)c(=O)n(Cc4cccc(OC)c4)c3n2)cc1`, the activation is inactive: 1.84%.

Consider `O=C(Cc1ccc2c(c1)OCO2)N1CCOc2ccc(CN3CCOCC3)cc2C1`, for which the activation was inactive: -13%. Consider `Cc1cc(N)c2ccccc2[n+]1CCCCCCCCCC[n+]1c(C)cc(N)c2ccccc21`, for which the activation is inactive: -2.03% [middle of 4 runs].

Consider `c1ccc(Cc2nnc3n2CCN(Cc2cnc(-c4ccccc4)s2)CC3)cc1`, for which the activation is inactive: -6.49%.

Turning to `CCCCCCCCCCCCC/C=C/[C@@H](O)[C@@H](N)CO`, the activation was inactive: -5.19% and inactive: -12.2%. On to `COc1ccccc1OCC(O)COC(N)=O` (configuration not stated), for which the activation is inactive: -5.28% and inactive: -9.65%. For the molecule `COCC(=O)N1CCC2(CC1)CCN(C(=O)Nc1ccc(OC)cc1)CC2`, the activation is inactive: -26.1%.

`NCCO/C=C/[C@H](N)C(=O)O`: the activation was inactive: 6.06%.

Regarding `C=Cc1ccc(C(=O)N2CCc3c(cnc(C)c3CNC(=O)c3ccc4c(c3)OCO4)C2)cc1`, the activation was inactive: -11.8%. In the case of `O=c1c(CCc2ccccc2)nc2cnc(N3CCNCC3)nc2n1C1CC1`, the activation is inactive: -5.23%.

With `Cc1ccc2cccc(O)c2n1`, the activation was inactive: -16.4%.

`N#Cc1cccc(CN2CCC(=O)N([C@H](CO)Cc3ccccc3)CC2)c1`: the activation was inactive: -6.24%.

With `COc1ccc(CNc2ncncc2-c2ccccc2OC)c(OC)c1`, the activation is inactive: -30.1%. Consider `COc1ccc2c(c1)OC(C)CN(CCC(=O)NCC1OCCc3ccccc31)C2` (configuration not stated), for which the activation was inactive: -1.47%. `CCNC(=O)/C=C/c1cccc(Br)c1`: the activation is inactive: -14.1%.

Consider `NC1CCN(c2nc3c(cc2F)c(=O)c(C(=O)O)cn3-c2ccc(F)cc2F)C1` (configuration not stated), for which the activation was inactive: -9.45%. Take `Cc1cccc(/C=C/c2cccs2)n1`: the activation was inactive: -18.4%. Turning to `COc1cccc(Cn2c(=O)c(-c3cn(C)c4ccccc34)nc3cnc(N4CCOCC4)nc32)c1`, the activation is inactive: -8.66%. Regarding `C[C@@H]1C(=O)NC2=Nc3cccc(Cl)c3CN21`, the activation was inactive: -22.1% and inactive: -38%. For `COCCN(C)C(=O)c1cnn(-c2ncc3c(n2)-c2ccccc2CCC3)c1C1CC1`, the activation was inactive: -0.453%.

With `O=c1cc(-c2ccccc2)oc2cccc(O)c12`, the activation was inactive: 2.29% and inactive: -1.18%. Same read-out and setting: the result for `O=C(NC1CCN(CCc2c[nH]c3ccccc23)CC1)c1ccccc1` reads inactive: -14.9%. In the case of `C=C[C@H](CC(C)C)N(Cc1ccccc1)S(=O)(=O)N(Cc1ccccc1)[C@H](C=C)CC(C)C`, the activation is inactive: -5.66%.

In the case of `Cc1ccccc1-c1ccc2ncnc(N3CCN(C)CC3)c2c1`, the activation was inactive: -17.3%. On to `COC(=O)c1c(OCc2ccccc2)cc(=O)n2c1CCN(Cc1cccc(C)n1)CC2`, for which the activation was inactive: -14.6%. Still for that read-out and setting: the result for `NCCNC(=O)c1ccc(Cl)cc1` reads inactive: 4.63%; that for `CC1=C(C2=C(C)C(C(C)C)C3=C(C(=O)C(O)C3O)C2O)C(O)C2=C(C(O)C(O)C2=O)C1C(C)C` (configuration not stated), inactive: 3.08%. Take `O=C1CCN(Cc2ccccc2)CCN1CCO`: the activation was inactive: -34.4%.

Take `CC(C1OC(C)(C)C(O)C1O)C1CC[C@@]2(C)C3=CCC4C(C)(C)C(=O)CC[C@]4(C)C3CC[C@@]12C` (some centres not stated): the activation was inactive: -23.1%.

As to `COc1ccc(CN2CCC3(CCC(CNC(=O)c4ccnn4C)O3)CC2)c(C)c1C` (configuration not stated), the activation is inactive: -9.06%.

In the case of `OCC(O)C(O)[C@H](O[C@H]1OC(CO)C(O)C(O)C1O)[C@H](O)CO` (some centres not stated), the activation is inactive: -16.5%. For the molecule `CC[N+](CC)(CC)c1ccc(/C=C/c2ccnc3ccccc23)cc1`, the activation was inactive: -23.2%.

With `COCCn1c(=O)cnc2cnc(Oc3cccc(Cl)c3)nc21`, the activation is inactive: -1.54%. On to `Cc1c(C(=O)N2CC[C@@H]3CCCC[C@H]3C2)sc2ncnc(NCCc3ccccn3)c12`, for which the activation was inactive: -9.11%. Consider `CCCCN1C[C@H](C)[C@@H](CC(=O)NCc2ccccc2)C1=O`, for which the activation was inactive: 7.82%. Regarding `CC(=O)Nc1ccc(S(=O)(=O)Nc2cc(C)on2)cc1`, the activation was inactive: -12%.

On to `CC(=O)NCCNc1cc(-c2ccccc2C)ncn1`, for which the activation is inactive: 2.33%. With `CC(C)C[C@@H](CC#N)N1CCN(CCc2ccccc2)CCC1=O`, the activation was inactive: -12.7%. The same measure, in the same setting: in the case of `Cc1ccc(CNc2ncnc3sc(C(=O)N4CCC[C@H]4C(N)=O)c(C)c23)o1` it was inactive: -12.6%; in that of `O=C(O)CP(=O)(O)O`, inactive: -6.52% and inactive: -24.6%; in that of `CN(C)c1ncc2nc(-c3cc(F)cc(F)c3)c(=O)n(C[C@H]3CCCO3)c2n1`, inactive: -17.4%. Take `CC1(C)CC(=O)C([C@H]2C3=C(CC(C)(C)CC3=O)Oc3ccccc32)C(=O)C1`: the activation is inactive: -7.14%.

In the case of `COCCNc1nc(-c2ccccc2C)nc2ccccc12`, the activation was inactive: -12.8%. For the molecule `c1ncc(CC2CCNCC2)[nH]1`, the activation was inactive: -13.6% and inactive: 11.4%. As to `Cc1cnc(CNc2ncnc3ccc(-c4ccc5c(c4)OCO5)cc23)cn1`, the activation was inactive: 2.9%. The same measure, in the same setting: in the case of `Cn1ccc2cc3c(cc21)CCN3C(=O)Nc1cccnc1` it was inactive: -2.04% and inactive: 0.536% and inactive: 11.2%. As for `Cc1oc(-c2ccccc2NC(=O)c2cccnc2)nc1CNC(=O)c1ccc(N(C)C)cc1`, the activation is inactive: -5.8%. For the molecule `CC(C)CCCC(C)C1CCC2C3=CC[C@@H]4CC(O)CC[C@@]4(C)C3CC[C@]21C` (some centres not stated), the activation was inactive: -32.8%. Same read-out and setting: the result for `Cc1occc1C(=O)Nc1cccc(-c2nc(CNC(=O)c3cccc(C#CC(C)(C)O)c3)c(C)o2)c1` reads inactive: -15.2%; that for `C=CCc1cccc(C=NNC(=O)CN2CCN(Cc3ccccc3)CC2)c1O`, inactive: -28.2%. For the molecule `FC(F)OC(Cl)C(F)(F)F` (configuration not stated), the Potency was active: 31.6 µM. As to `COCC(=O)N1CCC2(CC1)CCN(C(=O)NC(C)C)CC2`, the activation is inactive: -2.68%. In the case of `Cc1ncc2c(c1CNC(=O)c1cncs1)CCN(C(=O)c1ccc(C(F)(F)F)cc1)C2`, the activation was inactive: 0.21%. With `N#CC(C#N)=C(N)/C(C#N)=C/c1cc(O)c(O)c(O)c1`, the activation was inactive: 11.8%.

With `CC(C)CN1CC[C@@]2(CCCN(S(=O)(=O)c3ccccc3)C2)C1`, the activation was inactive: -25.7%. Still for that read-out and setting: the result for `Cn1cccc1C(=O)N1CCC2(CCN(Cc3ccccc3)CC2)CC1` reads inactive: -5.84%. As to `O=C(Nc1nccs1)[C@@H]1CC=C[C@@H]2CCN(C3CCCCC3)C(=O)[C@@H]21`, the activation was inactive: -12.8%. On to `COCc1c(C(=O)NC2CCCCC2)cnn1-c1nccc(-c2cc(C)sc2C)n1`, for which the activation was inactive: -10.2%. On the same count and under the same terms, the result for `Clc1cccc2c1CN(C1=NCCN1)C2` reads inactive: -19.8%. Turning to `COc1ccc(CCC(=O)O)cc1`, the activation was inactive: -9.57%. As for `COc1ccc(/C=C/C(=O)c2ccc(O)cc2O)cc1OC`, the activation is inactive: 1%.

As to `CCN(CC)CCCCCCCCOC(=O)c1cc(OC)c(OC)c(OC)c1`, the activation was inactive: -0.934% and inactive: -14.3% and inactive: -38.6%. On the same count and under the same terms, the result for `Cc1ccc(-c2ccc(C(=O)N3CCc4nnc(CNC(=O)c5ccccc5)n4CC3)cc2)cc1` reads inactive: -7.59%. With `Cc1c(C(=O)N2CCCCC2)sc2ncnc(NCCN(C)C)c12`, the activation is inactive: -0.49%. Turning to `CS(=O)(=O)N1CCC2(CCN(C(c3ccccc3)c3ccccc3)CC2)CC1`, the activation was inactive: -23.6%. Regarding `CCCSc1ccc2nc(NC(=O)OC)[nH]c2c1`, the activation is inactive: -11.7% and inactive: -20.3%. Regarding `O=C(c1cc(C(F)(F)F)cc(C(F)(F)F)c1)N1CCC2(CCCN(c3ccncc3)C2)CC1`, the activation was inactive: -7.92%. In the case of `O=[N+]([O-])c1cccc2[nH]cnc12`, the activation is inactive: 2.27%. Take `COc1ccc(-c2oc3cc(OC)c(OC(C)=O)c(OC)c3c(=O)c2OC)cc1OC(C)=O`: the activation is inactive: -9.51%. As to `CC(=O)O[C@H]1CC[C@@]2(C)C(=CC[C@H]3[C@@H]4CC[C@H](C(C)=O)[C@@]4(C)CC[C@@H]32)C1`, the activation is inactive: -0.231%.

Turning to `Nc1ncnc(Nc2ccccc2)n1`, the activation is inactive: -9.08%. In the case of `Cn1c(=O)[nH]c2nc[nH]c2c1=O`, the activation was inactive: -16.9%.

`CN1CCN(c2ncc3nc(-c4ccccc4)c(=O)n(-c4ccccc4)c3n2)CC1`: the activation was inactive: -3.62%. `CCC1(C2CCN(Cc3ccccn3)CC2)NC(=O)N(CC2COc3ccccc3O2)C1=O` (configuration not stated): the activation was inactive: -2.34%. For the molecule `Cc1cnc2ccccc2c1/C=C/c1ccc(N(C)C)cc1`, the activation is inactive: 20.8%. In the case of `COc1cccc(-c2ccc3ncnc(NCc4ccccc4)c3c2)c1`, the activation is inactive: -22.3%. The same measure, in the same setting: in the case of `O=C(NCc1nnc2n1CCN(Cc1ccc(C(F)(F)F)cc1)CC2)c1cccc(F)c1` it was inactive: -15.3%.

With `CCNc1ncc2nc(-c3cccs3)c(=O)n(CCc3ccccc3)c2n1`, the activation was inactive: -14%. For the molecule `C[N+]1(CC(=O)c2ccc(Oc3ccccc3)cc2)CCOCC1`, the activation was inactive: -33.3%. As to `CC(=O)NCCNc1nc(-c2ccc(C(=O)N(C)C)cc2)nc2ccccc12`, the activation was inactive: -10.5%. On the same count and under the same terms, the result for `COc1ccc2c(=O)cc(-c3ccccc3)oc2c1O` reads inactive: -5.65%. On to `CCC[C@@]1(CCc2ccccc2)CC(O)=C([C@H](CC)c2cccc(NS(=O)(=O)c3ccc(C(F)(F)F)cn3)c2)C(=O)O1`, for which the activation is inactive: 19.4%.

The values are drawn from PubChem BioAssay AID1645887 (National Center for Advancing Translational Sciences (NCATS), 2021).
